US7452951B2, “Multifunctional self-decontaminating surface coating” (priority 2004, dated 2008)

Test system: Gram-positive and Gram-negative bacteria tested
Details: activity listed as entry 5>8>7

For `CCCCCCCC[N+](C)(C)CCOC.[Cl-]` [Entry 5], the antimicrobial effectiveness was “effective”.

`CCCCCCCC[N+](C)(C)CCOCCOCCOC.[Cl-]` [Entry 7] was tested, and the antimicrobial effectiveness was “effective”.

In the case of `CCCCCCCC[N+](C)(C)CCOCCOCCOCCOC.[Cl-]` [Entry 8], the antimicrobial effectiveness is reported as “effective”.
